The full ranking holds about 2,900 compounds; the median of “NF-kB SEAP reporter activity, fold change vs agonist alone” is about 0.99, and the highest 2% start at about 2.6. Some of the results follow.

Experiment [1] has as its system RAW-Dual. The experiment is described as follows: NF-kB SEAP reporter activity, fold change vs agonist alone; higher = enhanced NF-kB activity. To be noted: library stock concentration (final ~1000-fold dilution): 10 mM. The method in brief: (§1)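 Supernatant from RAW-Dual macrophages was read after 20 hours for IRF by QuantiLuc luminescence and for NF-κB by QuantiBlue absorbance at 620 nm. The cells (50,000 cells/well in DMEM, 384-well plates, 37 °C, 5% CO2) had received 50 nL of library stock by pin tool and, 1 h later, a PRR agonist. Reporter activity is expressed relative to agonist-alone wells as fold change, and wells were flagged cytotoxic if IncuCyte confluency was under 70% of agonist controls in both mask sets.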

In experiment [2] the test system is RAW-Dual. The experiment in a line: NF-kB SEAP reporter activity, fold change vs agonist alone; cytotoxicity flag (confluency mask): not cytotoxic; higher = enhanced NF-kB activity. The method in brief:
as §1

In experiment [3] the test system is RAW-Dual. The experiment in a line: NF-kB SEAP reporter activity, fold change vs agonist alone; cytotoxicity flag (confluency mask): cytotoxic (confluency <70% of control); higher = enhanced NF-kB activity. Put shortly: as §1
Setting [4] is: cytotoxicity flag (confluency mask): not cytotoxic, agonist: Imiquimod (TLR7) […].
[5] abbreviates: cytotoxicity flag (confluency mask): not cytotoxic, agonist: MPLA (TLR4) […].
The mark [6] stands for this setting: agonist: ODN 1826 (TLR9) 0.5 ug/mL.
Setting [7] is: agonist: Pam2CSK4 (TLR2/6) 0.1 ug/mL.
The mark [8] stands for this setting: agonist: Pam3CSK4 (TLR2/1) 0.1 ug/mL.

With `Cl.NCCc1ccc(S(=O)(=O)F)cc1`, the entries for the “NF-kB SEAP reporter activity” value in experiment [1] (setting [4]) and in experiment [1] (setting [5]) were 1.07 and 1.23, respectively.
Take `Cl.NCCc1ccc(S(=O)(=O)F)cc1` (library stock concentration (final ~1000-fold dilution): 10 mM): the “NF-kB SEAP reporter activity” value in experiment [2] (agonist: LPS (TLR4) 0.1 ug/mL) was found to be 1.6; in experiment [2] (setting [6]), 1.01; in experiment [2] (setting [7]) it was 1.03; in experiment [2] (setting [8]), 1.9.
Consider `COc1ccc(O)c(C(C)(C)C)c1`, for which the “NF-kB SEAP reporter activity” value in experiment [1] (setting [4]) stood at 0.901; in experiment [1] (setting [5]), 0.958.
Take `COc1ccc(O)c(C(C)(C)C)c1` (library stock concentration (final ~1000-fold dilution): 10 mM): the “NF-kB SEAP reporter activity” value stood at 0.929 in experiment [2] (agonist: LPS (TLR4) 0.1 ug/mL), 0.665 in experiment [2] (setting [6]), 0.786 in experiment [2] (setting [7]) and 0.695 in experiment [2] (setting [8]).
In the case of `COc1ccc2c3c([nH]c2c1)C(C)=NCC3`, in experiment [1] (setting [5]), the “NF-kB SEAP reporter activity” value is 1.09.
Consider `COc1ccc2c3c([nH]c2c1)C(C)=NCC3` (library stock concentration (final ~1000-fold dilution): 10 mM), for which the “NF-kB SEAP reporter activity” value in experiment [2] (agonist: LPS (TLR4) 0.1 ug/mL) worked out at 0.902; in experiment [2] (setting [6]) it was 0.237; in experiment [2] (setting [7]), 1.02; in experiment [2] (setting [8]), 1.05.
`CCC(C)C(NC(=O)C(C(C)CC)N(C)C(C)=O)C(=O)NC(=O)C(NC(CC(C)C)C(=O)C1(C)CO1)C(C)O` (stereo unspecified): the entries for the “NF-kB SEAP reporter activity” value in experiment [1] (setting [4]) and in experiment [1] (setting [5]) were 2.27 and 1.06, respectively.
For `CCC(C)C(NC(=O)C(C(C)CC)N(C)C(C)=O)C(=O)NC(=O)C(NC(CC(C)C)C(=O)C1(C)CO1)C(C)O` (stereo unspecified) (library stock concentration (final ~1000-fold dilution): 10 mM), the “NF-kB SEAP reporter activity” value was determined as 0.773 in experiment [2] (agonist: LPS (TLR4) 0.1 ug/mL), 1.17 in experiment [2] (setting [6]), 0.28 in experiment [2] (setting [7]) and 0.51 in experiment [2] (setting [8]).
Regarding `O=C(Oc1ccc([N+](=O)[O-])cc1)N1CCC(C(O)(c2ccc3c(c2)OCO3)c2ccc3c(c2)OCO3)CC1`, the “NF-kB SEAP reporter activity” value in experiment [1] (setting [5]) turned out to be 0.794.
For the compound `O=C(Oc1ccc([N+](=O)[O-])cc1)N1CCC(C(O)(c2ccc3c(c2)OCO3)c2ccc3c(c2)OCO3)CC1` (library stock concentration (final ~1000-fold dilution): 10 mM), the “NF-kB SEAP reporter activity” value turned out to be 0.723 in experiment [2] (agonist: LPS (TLR4) 0.1 ug/mL), 0.521 in experiment [2] (setting [6]), 0.695 in experiment [2] (setting [7]) and 0.61 in experiment [2] (setting [8]).
For the compound `CC1CCC2C(C)C3CCC4C(CC5C4CC(O)C4CC(O)CCC45C)C3CN2C1` (stereo unspecified) (library stock concentration (final ~1000-fold dilution): 10 mM), the “NF-kB SEAP reporter activity” value in experiment [2] (agonist: LPS (TLR4) 0.1 ug/mL) is 1.15; in experiment [2] (setting [6]) it was 0.753; in experiment [2] (setting [7]) it was 0.965; in experiment [2] (setting [8]), 0.935.
As to `CC1CCC2C(C)C3CCC4C(CC5C4CC(O)C4CC(O)CCC45C)C3CN2C1` (stereo unspecified), the “NF-kB SEAP reporter activity” value was determined as 0.845 in experiment [1] (setting [4]) and 1.03 in experiment [1] (setting [5]).
Turning to `COc1cc2c(cc1OC)C1CC(=O)C(CC(C)C)CN1CC2` (stereo unspecified) (library stock concentration (final ~1000-fold dilution): 10 mM), the “NF-kB SEAP reporter activity” value in experiment [2] (agonist: LPS (TLR4) 0.1 ug/mL) was 1.08; in experiment [2] (setting [6]), 1.02; in experiment [2] (setting [7]) it was 0.98; in experiment [2] (setting [8]), 1.05.
With `COc1cc2c(cc1OC)C1CC(=O)C(CC(C)C)CN1CC2` (stereo unspecified), the “NF-kB SEAP reporter activity” value in experiment [1] (setting [4]) is 0.786; in experiment [1] (setting [5]) it was 0.826.
Consider `CN1CCc2cc3c(cc2C1C1OC(=O)c2c1ccc1c2OCO1)OCO3` (stereo unspecified), for which the results for the “NF-kB SEAP reporter activity” value in experiment [1] (setting [4]) and in experiment [1] (setting [5]) were 0.942 and 1.19, respectively.
On to `CN1CCc2cc3c(cc2C1C1OC(=O)c2c1ccc1c2OCO1)OCO3` (stereo unspecified) (library stock concentration (final ~1000-fold dilution): 10 mM), for which the “NF-kB SEAP reporter activity” value in experiment [2] (agonist: LPS (TLR4) 0.1 ug/mL) was 1.19; in experiment [2] (setting [6]), 0.98; in experiment [2] (setting [7]) it was 1.04; in experiment [2] (setting [8]) it was 1.02.
Consider `CCc1c2c(nc3ccccc13)-c1cc3c(c(=O)n1C2)COC(=O)C3(O)CC` (stereo unspecified), for which, in experiment [1] (cytotoxicity flag (confluency mask): cytotoxic (confluency <70% of control), agonist: MPLA (TLR4) […]), the “NF-kB SEAP reporter activity” value came to 1.62.
For the compound `CCc1c2c(nc3ccccc13)-c1cc3c(c(=O)n1C2)COC(=O)C3(O)CC` (stereo unspecified) (library stock concentration (final ~1000-fold dilution): 10 mM), the “NF-kB SEAP reporter activity” value in experiment [3] (agonist: LPS (TLR4) 0.1 ug/mL) amounted to 0.384; in experiment [3] (setting [6]) it was 2.29; in experiment [3] (setting [7]), 0.788; in experiment [3] (setting [8]), 0.641.
Consider `Br.COc1ccc2c(c1)C13CCCCC1C(C2)N(C)CC3.O` (stereo unspecified), for which the “NF-kB SEAP reporter activity” value in experiment [1] (setting [5]) is 0.902.
Regarding `Br.COc1ccc2c(c1)C13CCCCC1C(C2)N(C)CC3.O` (stereo unspecified) (library stock concentration (final ~1000-fold dilution): 10 mM), the “NF-kB SEAP reporter activity” value came out at 0.802 in experiment [2] (agonist: LPS (TLR4) 0.1 ug/mL), 0.615 in experiment [2] (setting [6]), 0.806 in experiment [2] (setting [7]) and 0.824 in experiment [2] (setting [8]).
In the same order, the values of `O=S(=O)(F)Cc1ccccc1` (library stock concentration (final ~1000-fold dilution): 10 mM) are 1.13, 1.07, 1.03 and 1.07.
Regarding `O=S(=O)(F)Cc1ccccc1`, the results for the “NF-kB SEAP reporter activity” value in experiment [1] (setting [4]) and in experiment [1] (setting [5]) were 1.11 and 1.12, respectively.
As for `CCNCC.O=C(O)Cc1ccccc1Nc1c(Cl)cccc1Cl` (library stock concentration (final ~1000-fold dilution): 10 mM), the “NF-kB SEAP reporter activity” value was found to be 1.05 in experiment [2] (agonist: LPS (TLR4) 0.1 ug/mL), 1.07 in experiment [2] (setting [6]), 1.03 in experiment [2] (setting [7]) and 0.876 in experiment [2] (setting [8]).
Regarding `CCNCC.O=C(O)Cc1ccccc1Nc1c(Cl)cccc1Cl`, the “NF-kB SEAP reporter activity” value is 1.15 in experiment [1] (setting [4]) and 0.921 in experiment [1] (setting [5]).
As to `COc1cc(-n2c(S)nc3ccccc3c2=O)c(Cl)cc1Cl`, the “NF-kB SEAP reporter activity” value in experiment [1] (setting [4]) was found to be 0.851; in experiment [1] (setting [5]), 0.953.
Regarding `COc1cc(-n2c(S)nc3ccccc3c2=O)c(Cl)cc1Cl` (library stock concentration (final ~1000-fold dilution): 10 mM), the “NF-kB SEAP reporter activity” value in experiment [2] (agonist: LPS (TLR4) 0.1 ug/mL) was found to be 1.4; in experiment [2] (setting [6]), 0.842; in experiment [2] (setting [7]), 0.849; in experiment [2] (setting [8]), 0.826.
`Cc1cc(C(=O)CN2CCCC2)c(C)n1-c1ccc(F)cc1`: the “NF-kB SEAP reporter activity” value in experiment [1] (setting [4]) stood at 0.779; in experiment [1] (setting [5]) it was 1.01.
With `Cc1cc(C(=O)CN2CCCC2)c(C)n1-c1ccc(F)cc1` (library stock concentration (final ~1000-fold dilution): 10 mM), the “NF-kB SEAP reporter activity” value in experiment [2] (agonist: LPS (TLR4) 0.1 ug/mL) stood at 0.816; in experiment [2] (setting [6]), 0.569; in experiment [2] (setting [7]), 1.03; in experiment [2] (setting [8]), 0.942.
Consider `CC1CCC/C=C/C2CC(O)CC2C(O)/C=C/C(=O)O1` (stereo unspecified), for which the “NF-kB SEAP reporter activity” value in experiment [1] (setting [4]) is 1.48; in experiment [1] (setting [5]), 0.636.
As for `CC1CCC/C=C/C2CC(O)CC2C(O)/C=C/C(=O)O1` (stereo unspecified) (library stock concentration (final ~1000-fold dilution): 10 mM), the “NF-kB SEAP reporter activity” value turned out to be 0.305 in experiment [2] (agonist: LPS (TLR4) 0.1 ug/mL), 0.297 in experiment [2] (setting [6]), 0.209 in experiment [2] (setting [7]) and 0.469 in experiment [2] (setting [8]).

Source of the values: the supplement of paper PMC10037445.
